Experimental data published in a compilation of properties of binary mixtures (doi:10.2298/jsc160317058s).
Some of these densities may be calculated back from excess volumes.

Test: xn = mol fraction of the nth substance listed
Conditions: 100 kPa

CCCC[n+]1ccn(C)c1.O=S(=O)([O-])C(F)(F)F + Nc1ccccc1
mass density [kg/m3]
Conditions | 288.15 K | 293.15 K | 298.15 K | 303.15 K | 308.15 K | 313.15 K | 318.15 K | 323.15 K | 328.15 K | 333.15 K
x2 = 0 | – | 1303.1 | 1299.1 | 1295.1 | 1291.1 | 1287.2 | 1283.3 | 1279.4 | 1275.5 | 1271.7
x2 = 0.1 | 1295.2 | 1291.2 | 1287.2 | 1283.2 | 1279.3 | 1275.4 | 1271.4 | 1267.5 | 1263.7 | 1259.8
x2 = 0.1995 | 1283.2 | 1279.2 | – | 1271.3 | 1267.4 | 1263.5 | 1259.6 | 1255.7 | 1251.8 | –
x2 = 0.3002 | – | – | 1261.3 | – | 1253.4 | 1249.5 | 1245.6 | – | 1237.9 | 1234
x2 = 0.3996 | – | – | – | – | – | – | – | 1225.3 | 1221.4 | 1217.6
x2 = 0.8999 | 1092.4 | 1088.3 | 1084.2 | 1080.1 | 1076 | 1072 | 1067.9 | – | – | 1055.6

CCCC[n+]1ccn(C)c1.O=S(=O)([O-])C(F)(F)F + CN(C)c1ccccc1
x2 = 0
Conditions | mass density [kg/m3]
288.15 K | 1307
293.15 K | 1303.1
298.15 K | 1299.1
303.15 K | 1295.1
313.15 K | 1287.2
318.15 K | 1283.3
323.15 K | 1279.4
328.15 K | 1275.5
333.15 K | 1271.7

Nc1ccccc1 + CCCC[n+]1ccn(C)c1.O=S(=O)([O-])C(F)(F)F
x1 = 1
Conditions | mass density [kg/m3]
288.15 K | 1026.1
293.15 K | 1021.7
298.15 K | 1017.4
303.15 K | 1013
308.15 K | 1008.7
313.15 K | 1004.4
318.15 K | 1000
328.15 K | 991.4
333.15 K | 987

CN(C)c1ccccc1 + CCCC[n+]1ccn(C)c1.O=S(=O)([O-])C(F)(F)F
mass density [kg/m3]
Conditions | 288.15 K | 293.15 K | 298.15 K | 303.15 K | 308.15 K | 313.15 K | 318.15 K | 323.15 K | 328.15 K | 333.15 K
x1 = 0.02 | – | – | – | 1287.9 | – | – | – | – | – | –
x1 = 0.0501 | – | – | – | 1281.1 | – | – | – | – | – | –
x1 = 0.1 | 1278.8 | 1274.7 | 1270.6 | 1266.6 | 1262.5 | 1258.5 | – | 1250.4 | – | –
x1 = 0.1402 | – | – | – | 1259.8 | – | – | – | – | – | –
x1 = 0.18 | – | – | – | 1253.5 | – | – | – | – | – | –
x1 = 0.2 | 1259.8 | 1255.8 | 1251.8 | 1247.7 | – | – | 1235.7 | 1231.8 | 1227.8 | 1223.8
x1 = 0.2998 | – | 1236.8 | 1232.7 | 1228.7 | 1224.8 | 1220.8 | 1216.9 | 1212.9 | 1209 | 1205.1
x1 = 0.397 | – | 1214.3 | – | 1206.3 | 1202.3 | 1198.3 | 1194.4 | 1190.5 | 1186.6 | 1182.7
x1 = 0.5045 | 1188 | 1183.9 | 1179.9 | 1175.9 | 1171.9 | 1167.9 | 1163.9 | 1160 | 1156 | –
x1 = 0.5996 | 1156.5 | 1152.5 | 1148.4 | 1144.4 | 1140.3 | 1136.3 | 1132.3 | 1128.3 | 1124.4 | 1120.4
x1 = 0.6997 | – | 1114.4 | 1110.4 | 1106.3 | 1102.2 | – | – | 1090.1 | 1086.1 | 1082.1
x1 = 0.7994 | 1074.4 | 1070.3 | 1066.2 | 1062.1 | 1058 | 1053.9 | 1049.9 | 1045.8 | 1041.8 | 1037.7
x1 = 0.8945 | 1024.8 | 1020.7 | – | 1012.4 | 1008.3 | 1004.2 | – | 996 | – | –
x1 = 1 | – | – | 952.3 | 948.2 | 944.1 | 940 | 935.9 | – | 927.7 | 923.5
